61 compounds from PubChem BioAssay AID1508642 (National Center for Advancing Translational Sciences (NCATS), 2021) can be followed below.

Out of some 43,000 compounds screened, about 200 (0.47%) were called active. Inconclusive results (about 12%) are left out. Calls follow the shape of the dose curve; as a rule, active = well fitted cell-killing curve with a large enough effect; inconclusive = small, poorly fitted or top-dose-only effect, or effect the other way; inactive = flat fitted curve, though single readings scatter. The list shows a part of the results.
% is scaled to controls: 0 for no effect and ±100 for the full control effect.

The nature of the test: Cell viability qHTS assay in S16 Pmp22-F2sN cells. Also: nearly all actives have a fitted effect of over 65% in size. As to conditions: S16 Pmp22-F2sN Schwann cells viability, CellTiter-Glo, 24 h; series mostly up to 57.5 µM; activity change, negative = cytotoxicity: at the top concentration. The essentials:
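S16 Pmp22-F2sN Schwann cells (500-1,000/well) in phenol-red-free DMEM with 10% FBS received 23 nL compound by pin tool for 24 h at 37 °C. Viability was then read as CellTiter-Glo luminescence after 15 min at room temperature.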
A general note: In qHTS, concentration-response curves come from the screen itself.
For `CCOCCCNC(=O)c1cn(CC)c2ccc(S(=O)(=O)N3CCc4ccccc4C3)cc2c1=O`, the “activity change, negative = cytotoxicity” value was inactive: -9.95%.
The figure for `CCOC(=O)c1[nH]c(C)c(CCC(=O)N2CCN(c3cccc(C)c3C)CC2)c1C` is inactive: -24.2%; for `COc1cc(C(CC(=O)Nc2cc(C)ccc2C)N2Cc3ccccc3C2=O)cc(OC)c1OC` (stereo unspecified) it is inactive: -0.107%.
On to `CN(Cc1ccccc1)C(=O)c1cccc(NC(=O)c2nsc3ccccc23)c1`, for which the “activity change, negative = cytotoxicity” value was inactive: -26.5%.
As to `CCOc1ccc(CC(=O)NCCc2csc(-c3ccc(Cl)cc3)n2)cc1`, the “activity change, negative = cytotoxicity” value was inactive: -4.3%.
The figure for `CCc1ccc(Nc2sc(C(=O)c3ccccc3)c(N)c2S(C)(=O)=O)cc1` is inactive: -2.48%; for `CCOCCc1nn2c(=O)cc(COC(=O)CNC(=O)c3ccc(F)cc3)nc2s1` it is inactive: -0.443%; for `CCOc1ccc(CN2C(=O)c3ccccc3Sc3ccc(C(=O)OC)cc32)cc1` it is inactive: -22.6%.
Regarding `COc1ccc(OC)c(CNC(=O)c2c(C)oc3ncn(C)c(=O)c23)c1`, the “activity change, negative = cytotoxicity” value was inactive: -17.7%.
The figure for `O=C(c1ccc2c(c1)CCN2S(=O)(=O)c1ccc(Cl)cc1)N1CCN(c2ccccc2)CC1` is inactive: -11.3%; for `COc1ccc(CNc2oc(/C=C/c3cccc(OC)c3)nc2C#N)cc1` it is inactive: -24.7%; for `O=C(NCc1ccc(F)cc1)C1CCN(c2ncnc3c2nc2n3CCCCC2)CC1` it is inactive: 14.3%.
`COc1ccc(CNC(=O)c2ccc3c(c2)N(Cc2ccccc2C)C(=O)c2ccccc2S3=O)cc1` (stereo unspecified): the “activity change, negative = cytotoxicity” value is inactive: -6.14%.
With `CCOC(=O)C1CCN(S(=O)(=O)c2ccc(N3CCCCS3(=O)=O)cc2)CC1` the figure was inactive: -1.35%; with `CCCn1c(=O)c2sccc2n2c(CCCC(=O)Nc3ccc(Oc4ccccc4)cc3)nnc12`, inactive: 1.06%; with `CCn1c(SCc2ccc(F)cc2Cl)nc(=O)c2c(C(=O)OC)cc(C3CC3)nc21`, inactive: -19.5%.
The figure for `Cc1ccc(CNC(=O)c2cc(-c3ccc(C)cc3)nc3n[nH]c(-c4ccc(F)cc4)c23)cc1` is inactive: -1.24%; for `CC(C)C1N=C2c3ccccc3N=C(SCC(=O)NCc3ccccc3Cl)N2C1=O` (stereo unspecified) it is inactive: -21.1%.
As for `Cc1ccc(-c2cn3c(n2)sc2cc(C(=O)NCc4cccs4)ccc23)c(C)c1`, the “activity change, negative = cytotoxicity” value was inactive: -21.9%.
The figure for `Cc1ccc(N(Cc2cc3ccccc3[nH]c2=O)C(=O)c2cccc(Cl)c2)cc1` is inactive: 1.98%.
On to `CCN(CC)CCCNC(=O)CSc1nc2nc(C)c(Cc3c(F)cccc3Cl)c(C)n2n1`, for which the “activity change, negative = cytotoxicity” value was inactive: 1.88%.
The figure for `CC1=C(C(N)=O)C(c2cccc(C)c2)n2nc(-c3cccc(C)c3)nc2N1` (stereo unspecified) is inactive: -16.1%; for `Cc1ccc(C)c(NC(=O)Cn2c(=O)n(Cc3ccc4c(c3)OCO4)c(=O)c3oc4ccccc4c32)c1` it is inactive: 8.29%.
With `Cc1ccc(CSc2nnc(-n3c(=O)c(C#N)cc4c(=O)n5cc(C)ccc5nc43)s2)cc1` the figure was inactive: -19.8%; with `COc1ccc(-c2noc(CSc3nc(C)cc(=O)[nH]3)n2)cc1OC`, inactive: 17%; with `COc1ccc(OCC2c3cc(OC)c(OC)cc3CCN2C(=O)COc2ccc(Cl)cc2Cl)cc1` (stereo unspecified), inactive: 1.66%.
For `CC(C)c1ccc2occ(CC(=O)Nc3ccccc3Cl)c2c1`, the “activity change, negative = cytotoxicity” value is inactive: -5.92%.
For the compound `COc1ccc(Cn2ccc3nc(C)c(C(=O)N4CCN(c5ccccc5OC)CC4)cc3c2=O)cc1`, the “activity change, negative = cytotoxicity” value is inactive: -25.8%.
Take `CC(C)NC(=O)C(c1ccccc1)N1Cc2ccccc2C1=O` (stereo unspecified): the “activity change, negative = cytotoxicity” value was inactive: 6.22%.
The figure for `CCN(C(=O)CSc1nc2ccccc2n1CC(=O)Nc1ccc(F)cc1F)c1ccccc1` is inactive: -0.953%.
On to `COc1ccc(-c2ccc(CCC(=O)O)n2-c2ccc(Cl)cc2C)cc1`, for which the “activity change, negative = cytotoxicity” value is inactive: 0.312%.
The figure for `CCOC(=O)c1cccc(NC(=O)CCc2c(C)nn(-c3ccc(N4CCOCC4)nn3)c2C)c1` is inactive: 22.7%; for `Cc1cn2c(=O)c(S(=O)(=O)NCc3ccccc3Cl)c(C)nc2s1` it is inactive: -1.18%.
The figure for `COCCCn1c(=O)c2sccc2n2c(CCCC(=O)NCc3ccc(F)cc3)nnc12` is inactive: 0.979%; for `Cc1ccc2[nH]c3c(=O)n(CC(=O)NCCc4ccc(Cl)cc4)ncc3c2c1` it is inactive: 6.56%.
For the compound `COc1ccc(NC(=O)C2CCN(c3cnccn3)CC2)cc1Cl`, the “activity change, negative = cytotoxicity” value was inactive: 4.58%.
Regarding `CCn1cc(S(=O)(=O)c2cccc(C)c2)c(=O)c2cc(F)c(N3CCN(c4ccccc4)CC3)cc21`, the “activity change, negative = cytotoxicity” value was inactive: 2.95%.
The figure for `CCc1ccc(-n2nc(CO)c(C(=O)NCc3ccccc3OC)n2)cc1` is inactive: -2.79%; for `CCOC(=O)c1ccc2[nH]c(CSc3nnc(-c4cccc(F)c4)n3C)cc(=O)c2c1` it is inactive: 9.68%; for `Cc1ccc(-n2nc(C(=O)N3CCN(c4cccc(C(F)(F)F)c4)CC3)c3c4ccccc4n(C)c3c2=O)cc1` it is inactive: 1.01%.
With `Cc1cccc(NC(=O)COc2cccc3c(=O)n(C)ccc23)c1C` the figure was inactive: -12.8%.
The figure for `Cc1ccc(C)c(-c2[nH]c3c(c2-c2c(-n4cccc4)n(C)c(=O)n(C)c2=O)c(=O)n(C)c(=O)n3C)c1` is inactive: 1.58%; for `COc1ccc(OC)c(NC(=O)c2cc(=O)c3c(C)cc(C)cc3o2)c1` it is inactive: -0.372%.
As to `Cc1ccc(CNc2cc(C)nc3nc(-c4cccc(C)c4)nn23)cc1`, the “activity change, negative = cytotoxicity” value was inactive: -7.66%.
The figure for `Cc1ccc(CNc2nccn(-c3cc(C)cc(C)c3)c2=O)cc1` is inactive: -20.7%; for `CCc1ccc(NS(=O)(=O)c2ccc3[nH]cc(C(=O)N(C)Cc4ccco4)c(=O)c3c2)cc1` it is inactive: -2.24%.
Turning to `CCC(=O)N1CCc2cc(Br)cc(S(=O)(=O)CCC(=O)NCCc3ccccc3)c21`, the “activity change, negative = cytotoxicity” value was inactive: -11%.
With `CCc1ccccc1NC(=O)Cn1cc2c(n1)CCC(C)C2` (stereo unspecified) the figure was inactive: -1.73%.
On to `CCCN(C(=O)CCNC(=O)Cn1cnc2ccccc2c1=O)c1cccc(C)c1`, for which the “activity change, negative = cytotoxicity” value was inactive: 3.86%.
Consider `CCN(C(=O)c1cc2c(=O)oc3ccc(C)cc3c2s1)c1ccccc1F`, for which the “activity change, negative = cytotoxicity” value was inactive: 13.1%.
Consider `CCOc1ccccc1NC(c1nnc(-c2ccccc2)o1)c1ccc(F)cc1Cl` (stereo unspecified), for which the “activity change, negative = cytotoxicity” value is inactive: -0.639%.
With `CCOC(=O)c1c(NC(=O)c2ccc(OC)c(OC)c2)sc2c1CCCCC2` the figure was inactive: 7.42%; with `O=C(Nc1ccc2oc(-c3ccc(Cl)cc3)nc2c1)c1ccc2ccccc2c1`, inactive: 5.72%.
With `Cc1cccc(NS(=O)(=O)c2ccc(NC(=O)N3CCCC3)cc2)c1` the figure was inactive: 5.25%; with `COc1ccc(CN2C(=O)c3oc4ccccc4c(=O)c3C2c2ccc(O)c(OC)c2)cc1` (stereo unspecified), inactive: 11.7%; with `Cc1csc2nc(CCNS(=O)(=O)c3ccc(F)cc3)cn12`, inactive: -0.674%.
With `CCOc1ccc(CNC(=O)c2ccc3c(c2)nc2n3CCC(C)C2)cc1OC` (stereo unspecified) the figure was inactive: 13.7%.
As for `Cc1ccc(NC(=O)Cn2c(SCc3ccc(F)cc3)nc3cccnc32)cc1F`, the “activity change, negative = cytotoxicity” value is inactive: -6.19%.
With `O=C(O)c1ccc(NC(=O)c2cc3ccccc3o2)cc1` the figure was inactive: 5.05%; with `CC1CCc2c(sc(NC(=O)COc3ccccc3C(C)(C)C)c2C#N)C1` (stereo unspecified), inactive: -0.89%; with `O=C(CSc1nc2c([nH]c3ccccc32)c(=O)n1-c1ccccc1)N1CCCCCC1`, inactive: 13.2%.
